Measured values taken from PubChem BioAssay AID1865 (National Center for Advancing Translational Sciences (NCATS), 2009).
The whole screen tested about 280,000 compounds, of which about 540 (0.19%) were called active. About 2% were inconclusive and are not listed. Calls come from the whole dose curve; as a rule, active = well fitted activation curve with a large enough effect; inconclusive = small, poorly fitted or top-dose-only effect; inactive = flat fitted curve, though single readings scatter. Only a part is listed here, and it is no random draw. Non-standard residues stand in square brackets, D forms with d. Residues, ends and D or L forms follow the SMILES beside them. Nle = CCCC[C@H](N)C(=O)O

Experiment: Quantitative High-Throughput Screen for Regulators of Epigenetic Control; note: nearly all actives have a fitted effect of over 60% in size; for GFP activation: % of control where 0% means no effect
Details: murine LDR cells, GFP reporter derepression, 30 h; series mostly up to 53.9 µM; GFP activation: at the top concentration
Outline: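 Reporter derepression read as number of fluorescent GFP-positive objects, 20-120 um in size, counted by laser-scanning cytometer. Mouse LDR line with an epigenetically silenced CMV-GFP locus; compound incubation 30 h, 37 C.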
Potency is the fitted concentration of half-maximal effect.

Row | Compound | Potency | GFP activation
1 | Cc1ccc(/C=C2/NC(=O)N(Cc3ccccc3)C2=O)s1 | active: 25.1 µM | 
2 | COc1ccccc1-c1nc(C#N)c(N2CCN(c3ccccc3)CC2)o1 |  | inactive: -3.17%
3 | CC(=O)OCC1OC(C#Cc2ccccc2)C=CC1OC(C)=O (configuration not stated) |  | inactive: 15.9% [at 10.1 µM]
4 | COC(=O)C1=C(C)N(Cc2ccccc2)C2=C3C(=O)N(c4ccccc4)C(=O)C3[C@@](O)(C(=O)OC)C(=O)N2C1c1ccccc1 (some centres not stated) |  | inactive: 0.833% [at 10.1 µM]
5 | COC1C=CO[C@@]2(C)Oc3c(C)c(O)c4c(O)c(c(C=NN5CCN(C)CC5)c(O)c4c3C2=O)NC(=O)/C(C)=C\C=CC(C)C(O)[C@@H](C)C(O)C(C)[C@H](OC(C)=O)C1C (some centres not stated) |  | inactive: 0.833%
6 | CCN(CC)c1ccc2cc(-c3nc4ccccc4[nH]3)c(=O)oc2c1 | active: 2.82 µM | 
7 | COC1(OC)N=C(N)C2(C#N)C(c3ccc(F)cc3)C12C#N (configuration not stated) |  | inactive: -9.52%
8 | CCCN1C(=O)/C(=C\C=C2\N(CC)c3ccccc3C2(C)C)SC1=S |  | inactive: -5.8%
9 | O=C(CSc1ncn[nH]1)OCN1C(=O)c2ccccc2C1=O |  | inactive: -1.11%
10 | CC(C)Cn1c(N)c(C(=O)COC(=O)c2cc(C(F)(F)F)nc3c(C(F)(F)F)cccc23)c(=O)n(C)c1=O |  | inactive: 13.9%
11 | N#C/C(=C\c1cccs1)c1nc2ccccc2[nH]1 |  | inactive: -1.77%
12 | COC(=O)[C@@]1(Cc2ccc(OC)cc2)[C@H]2c3cc(C(=O)N4CCCC4)n(Cc4ccc(OC)c(OC)c4)c3C[C@H]2CN1C(=O)c1ccccc1 |  | inactive: 2.94%
13 | CC1(C)CC(CCNC(=O)c2ccco2)CC(C)(C)N1 |  | inactive: -16.8%
14 | COc1cccc(/C=N/n2c(C)nc3ccccc32)c1OC |  | inactive: -6.35%
15 | OCc1cc(C(O)CNCCCCCCOCCCCc2ccccc2)ccc1O (configuration not stated) | inactive | 
16 | CN1/C(=C/C=C(C#N)C#N)C(C)(C)c2ccccc21 |  | inactive: 0.806%
17 | CCOc1ccccc1NC(=O)CN(C)S(=O)(=O)c1ccc(OC)c(C)c1 |  | inactive: 0%
18 | CCOc1cc(-c2noc(CCCC(N)=O)n2)cc(Br)c1OC |  | inactive: -4.43%
19 | CCCCCCc1ccc(O)cc1O |  | inactive: 13.1%
20 | O=C(c1noc2c1CCc1ccccc1-2)N1CCOCC1 |  | inactive: -3.17%
21 | Cc1cc(C)c(NC(=O)Cn2cnc3c(oc4ccccc43)c2=O)c(C)c1 |  | inactive: -2.94%
22 | Cc1cccc2cc(C#N)c(N3CCN(C)CC3)nc12 |  | inactive: -0.292%
23 | CC(NC(=O)CSc1ncccn1)c1ccccc1 (configuration not stated) |  | inactive: -7.16%
24 | COC(=O)CCC(=O)Nc1ccc(NC(=O)CCC(=O)OC)cc1 |  | inactive: 0%
25 | CCC(=O)Nc1ccc(N2CCN(Cc3ccccc3F)CC2)cc1 |  | inactive: 15.5%

Row | Compound | Potency | GFP activation
26 | N#C/C(=C/c1ccc(O)cc1)c1nc(-c2ccc(-c3ccccc3)cc2)cs1 | active: 11.2 µM | 
27 | COC(=O)[C@@H]1[C@@H]2C[C@H]3c4[nH]c5cc(OC)ccc5c4CCN3C[C@@H]2C[C@H](OC(=O)c2cc(OC)c(OC)c(OC)c2)[C@H]1OC |  | inactive: 7.9% [at 16.9 µM]
28 | CCCCCCc1cc2cc(-c3nnc(-c4ccccc4)o3)c(=O)oc2cc1O | active: 1.78 µM | 
29 | CC1CCCCC1NC(=O)CSc1nnc(-c2ccccc2)n1N (configuration not stated) |  | inactive: -10.4%
30 | CC(=O)N1CCC2(CC1)CC(=O)c1cc(OCC(=O)NCc3ccc(C)cc3)ccc1O2 |  | inactive: -12.7%
31 | Cc1cc(=O)oc(C)c1C(=O)N1CCN(C(c2ccccc2)c2ccccc2)CC1 |  | inactive: 0.686%
32 | COc1cc(C)c(-c2cc(C(=O)O)c(C)o2)cc1C(C)C |  | inactive: -3.86%
33 | COC(=O)CSc1nc2cc(C)ccc2cc1C#N | active: 15.8 µM | 
34 | COc1ccc(CCNc2ncnc3nc[nH]c23)cc1OC |  | inactive: 0%
35 | O=C1N=C(N2CCOCC2)S/C1=C\c1cccs1 |  | inactive: -4.95%
36 | Cc1c(NC(=O)c2cc(-c3ccccc3O)on2)c(=O)n(-c2ccccc2)n1C |  | inactive: 13.2%
37 | O/N=C1\CC(O)Cc2nonc21 (configuration not stated) |  | inactive: -6.09%
38 | COCC(=O)N(Cc1cc2cc(OC)ccc2[nH]c1=O)c1ccccc1 |  | inactive: -19.9%
39 | COc1cc2c(cc1OC)C(Cc1ccc(O)cc1)NCC2 (configuration not stated) |  | inactive: 1.98%
40 | CSc1nc(C)cc(/C=C\c2ccccc2)c1C#N |  | inactive: 1.28%
41 | Cc1cc(C(=O)CCl)c(C)n1Cc1ccco1 | active: 12.6 µM | 
42 | CCOC(=O)CNc1nc2ccccc2n2c(C)nnc12 |  | inactive: 8.45%
43 | CCOC(=O)c1ccc(NS(=O)(=O)c2cccc3nsnc23)cc1 |  | inactive: -15%
44 | Cc1ccc(NC(=O)/C=C/c2ccc([N+](=O)[O-])s2)cc1 | active: 8.91 µM | 
45 | CNS(=O)(=O)c1ccc(NC(=O)c2nc3nc(C)cc(C(F)F)n3n2)cc1 |  | inactive: 0.781%
46 | CCCC[C@@H](C=O)NC(=O)[C@H](CC(C)C)NC(=O)[C@H](CC(C)C)NC(C)=O (Ac-Leu-Leu-[Nle]-aldehyde) | active: 11.2 µM | 
47 | O=C(CSc1ccc(-c2cccs2)nn1)Nc1ccccc1 |  | inactive: 2.54%
48 | CCN(CC(=O)Nc1c(C(=O)OC)[nH]c2ccc(C)cc12)c1ccc2c(c1)OCO2 |  | inactive: -2.59%
49 | O=C(COc1ccc(S(=O)(=O)NC2CCCCC2)cc1Cl)NCC1CCCO1 (configuration not stated) |  | inactive: -19%
50 | CCN(CC)CCCNC(=O)CSc1c2c(nc3cc(Cl)ccc13)CCCC2 |  | inactive: -0.841%

Row | Compound | Potency | GFP activation
51 | CCn1c(N)nc2c1c(=O)n(C)c(=O)n2C |  | inactive: 0%
52 | CO[C@H]1/C=C/O[C@@]2(C)Oc3c(C)c(O)c4c(O)c(c(/C=N/N5CCN(C)CC5)c(O)c4c3C2=O)NC(=O)/C(C)=C\C=C\[C@H](C)[C@H](O)[C@@H](C)[C@@H](O)[C@@H](C)[C@H](OC(C)=O)[C@@H]1C |  | inactive: 1.05%
53 | COc1cccc2c1C(=O)c1c(O)c3c(c(O)c1C2=O)C[C@@](O)(C(=O)CO)C[C@@H]3OC1C[C@@H](N)[C@H](O)[C@H](C)O1 (some centres not stated) |  | inactive: 2.12%
54 | CCOC(=O)c1cccc(NC(=O)c2cnc3ccccc3n2)c1 |  | inactive: -6.8%
55 | CCOC(=O)C1C(=O)C=C(/C=C/c2ccc(N(C)C)cc2)CC1c1ccccc1 (configuration not stated) | active: 22.4 µM | 
56 | O=C(CSc1nc2c([nH]c3ccccc32)c(=O)n1-c1ccc(F)cc1)NCc1ccco1 |  | inactive: 9.4%
57 | COCCSc1ccccc1C(=O)Nc1nncs1 |  | inactive: -0.877%
58 | C=C(CC)C(=O)c1ccc(OCC(=O)O)c(Cl)c1Cl | inactive | 
59 | CCc1ccc(C(=O)c2cn(CC(=O)Nc3cc(F)ccc3F)c3nc(C)ccc3c2=O)cc1 | active: 20 µM | 
60 | O=C(Nc1ccccc1)/C(=C\c1ccc2c(c1)OCO2)NC(=O)c1ccco1 |  | inactive: 1.89%
61 | CCOC(=O)c1cn(-c2ccc(F)c(F)c2)c2c(F)c(F)c(F)c(F)c2c1=O |  | inactive: 5.13%
62 | CCN(CC)c1ccc2cc(-c3nc4ccccc4n3C)c(=O)oc2c1 | active: 7.08 µM | 
63 | O=C(c1ccccc1)c1ncc(C(F)(F)F)cc1Cl |  | inactive: 0%
64 | N#C/C(=C\C=C\c1ccccc1)C(=O)Nc1ccccc1 |  | inactive: -0.962%
65 | CCOn1c(=O)c[n+]([O-])c2ccccc21 | active: 10 µM | 
66 | CCCCN1CCc2c([nH]c3c(C)cccc23)C1=O |  | inactive: 5.74%
67 | N#Cc1c(-c2ccccc2)no[n+]1[O-] |  | inactive: 0%
68 | CC12C(=O)N(CCC(=O)O)C(=O)C1C1C=CC2C1 (configuration not stated) |  | inactive: -4.76%
69 | O=c1c[n+]([O-])c2ccccc2n1OCc1c(F)cccc1F | active: 12.6 µM | 
70 | Cn1cccc1/C=C1\CCC/C(=C\c2cccn2C)C1=O | active: 12.6 µM | 
71 | CC(=O)[C@]1(O)CCC2C3CC(C)C4=CC(=O)C=CC4(C)[C@@]3(F)C(O)C[C@]21C (some centres not stated) |  | inactive: -0.5%
72 | CCCCCCCCCCCCCCC[C@@H](O)[C@@H](N)CO | inactive | 
73 | O=c1c(N2CCOCC2)nsnc1N1CCOCC1 |  | inactive: -9.31%
74 | CC1=C(/C=C/C(C)=C/C=C/C(C)=C/C(=O)Nc2ccc(O)cc2)C(C)(C)CCC1 | inactive | 
75 | COc1ccc(C(=O)Nc2nc(C)c(C(=O)N(C)C)s2)cc1OC |  | inactive: -3.17%

Row | Compound | Potency | GFP activation
76 | CCN(CC)c1ccc(/C=C(\C#N)c2nc(-c3cccs3)c(NC(C)=O)s2)cc1 | active: 1.58 µM | 
77 | CCN(CC)S(=O)(=O)c1ccc2c(c1)c(=O)c(C(=O)NCCOC)cn2C |  | inactive: -1.59%
78 | CN(C)Cc1nc2c([nH]1)c(=O)n(C)c(=O)n2C |  | inactive: 0%
79 | CN(C)c1ccc(/C=C(\C#N)C(=O)Nc2nc3c(s2)CCN(Cc2ccccc2)C3)cc1 | active: 7.94 µM | 
80 | Oc1ccc(NCc2ccccc2OCc2ccccc2F)cc1 |  | inactive: 2.03%
81 | Cc1cc(=O)oc2cc3c(cc12)OCCO3 |  | inactive: -8.81%
82 | COc1ccccc1C(CCN(Cc1cccs1)C(C)=O)c1ccco1 (configuration not stated) |  | inactive: 4.43%
83 | COc1ccc(NC(=O)/C(C#N)=C\c2ccc(N3CCOCC3)o2)cc1 | active: 15.8 µM | 
84 | O=C1Nc2c(c(=O)[nH]c(=O)n2-c2ccccc2)C1(Nc1ncccn1)C(F)(F)F (configuration not stated) |  | inactive: 4.12%
85 | CCC1CCCCN1C(=O)CSc1nc2c(cnn2-c2ccc(C)cc2)c(=O)[nH]1 (configuration not stated) |  | inactive: 1.28%
86 | COC(=O)[C@H]1[C@H]2C[C@@H]3c4[nH]c5cc(OC)ccc5c4CCN3C[C@H]2C[C@@H](OC(=O)c2cc(OC)c(OC)c(OC)c2)[C@@H]1OC | active: 22.4 µM | 
87 | CC(C)(C)Nc1nc(OCC(F)(F)F)nc(OCC(F)(F)F)n1 |  | inactive: -4.76%
88 | COc1ccc(-c2cc(C(F)(F)F)c(C#N)c(SCC(=O)Nc3ccccc3C#N)n2)cc1 | active: 7.94 µM | 
89 | CCCCOc1ccc(C(=O)NCc2ccccn2)cc1 |  | inactive: 0.207%
90 | O=C(N/N=C/C=C\c1ccco1)c1cccs1 |  | inactive: -0.935%
91 | COc1cc2c(-c3ccccc3O)nc3c(c(C)nn3-c3ccccc3)c2cc1OC |  | inactive: 8.49%
92 | Cc1ccccc1NC(=O)/C=C/c1ccc([N+](=O)[O-])s1 | active: 3.55 µM | 
93 | COCCN=C1OC(=O)N2C(=O)C3=C4C(C[C@H]5C(=O)N(c6ccccc6)C(=O)[C@H]5[C@H]4[C@@]12Cc1ccccc1)[C@H]1C(=O)N(c2ccccc2)C(=O)[C@H]1[C@H]3C (some centres not stated) |  | inactive: 0.36%
94 | COc1ccc(CN(CCN(C)C)c2ccccn2)cc1 | inactive | 
95 | CCOC(=O)C1=C(C)NC(=O)NC1c1ccc(OC)c(CN2CCOCC2)c1 (configuration not stated) |  | inactive: -16.9%
96 | COc1ccc(-c2nc(C#N)c(NCCCN(C)C)o2)cc1OC |  | inactive: -19%
97 | CCN(CC)c1ccc2c(Cl)c(Br)c(=O)oc2c1 | active: 11.2 µM | 
